Test results from the supplement of paper PMC9151546.
Repeats are few or missing, and single values can be far off.

What was measured:
CHO-K1 [1] = assay: relative survival (nuclei to bead ratio vs DMSO control) (% of vehicle control); higher = more surviving cells
Method: (§1)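 Flow-cytometric in vitro micronucleus assay (Litron MicroFlow) in CHO-K1 cells in 96-well plates, 19 concentrations (4.5-200 µM, n=1 per concentration). Without S9, cells were exposed for 24 h and sampled at 48 h. With Aroclor 1254-induced rat liver S9, cells were exposed for 3-4 h and sampled at 27-28 h. Read-outs are %MN and %hypodiploid nuclei relative to nucleated events, and relative survival as the nuclei-to-bead ratio versus the 1% DMSO vehicle control (x100).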

CHO-K1 [2] = assay: micronucleus frequency (% of nucleated events); higher = more micronuclei (genotoxic)
CHO-K1 [3] = assay: hypodiploid nuclei frequency (% of nucleated events); higher = more hypodiploid events (aneugenic)
Method: as §1
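Throughout, for hypodiploid nuclei frequency (% of nucleated events): hypodiploid nuclei gated on a flow cytometer with 488 nm excitation after SYTOX Green staining, cultures at 37 °C, positive controls vinblastine without S9 and cyclophosphamide with S9.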
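Throughout, for micronucleus frequency (% of nucleated events): cells lysed with nuclei stained by SYTOX Green, then micronucleus-gated events counted against nucleated events by flow cytometry with 488 nm excitation.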
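Throughout, for relative survival (nuclei to bead ratio vs DMSO control): Lysed-cell nuclei stained with SYTOX Green and counted against counting beads by flow cytometry at 488 nm excitation, with vinblastine (no S9) and cyclophosphamide (plus S9) as positive controls.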

Oc1ccc(Cl)cc1Cl [2,4-Dichlorophenol]
Conditions	hypodiploid nuclei frequency, CHO-K1 [3] [%]	micronucleus frequency, CHO-K1 [2] [%]	relative survival, CHO-K1 [1]
concentration: 4.5 (µM), S9 metabolic activation: with S9, exposure time: 3-4 hours	0.3	1.36	110
concentration: 4.5 (µM), S9 metabolic activation: without S9, exposure time: 24 hours	0.46	1.4	82.3
concentration: 5.63 (µM), S9 metabolic activation: with S9, exposure time: 3-4 hours	0.14	1.12	121
concentration: 5.63 (µM), S9 metabolic activation: without S9, exposure time: 24 hours	0.48	1.06	95.5
concentration: 7.04 (µM), S9 metabolic activation: with S9, exposure time: 3-4 hours	0.28	1.26	132
concentration: 7.04 (µM), S9 metabolic activation: without S9, exposure time: 24 hours	0.44	2.24	90.7
concentration: 8.8 (µM), S9 metabolic activation: with S9, exposure time: 3-4 hours	0.36	0.98	130
concentration: 8.8 (µM), S9 metabolic activation: without S9, exposure time: 24 hours	0.62	1.1	108
concentration: 11 (µM), S9 metabolic activation: with S9, exposure time: 3-4 hours	0.2	1.04	120
concentration: 11 (µM), S9 metabolic activation: without S9, exposure time: 24 hours	0.58	1.16	89.9
concentration: 13.7 (µM), S9 metabolic activation: with S9, exposure time: 3-4 hours	0.16	1.1	111
concentration: 13.7 (µM), S9 metabolic activation: without S9, exposure time: 24 hours	0.7	1.58	131
concentration: 17.2 (µM), S9 metabolic activation: with S9, exposure time: 3-4 hours	0.26	1.3	92.8
concentration: 17.2 (µM), S9 metabolic activation: without S9, exposure time: 24 hours	0.64	1.62	86.6
concentration: 21.5 (µM), S9 metabolic activation: with S9, exposure time: 3-4 hours	0.16	1.46	97.9
concentration: 21.5 (µM), S9 metabolic activation: without S9, exposure time: 24 hours	0.52	1.7	86.3
concentration: 26.8 (µM), S9 metabolic activation: with S9, exposure time: 3-4 hours	0.1	2.34	79.6
concentration: 26.8 (µM), S9 metabolic activation: without S9, exposure time: 24 hours	0.96	3.14	89.2
concentration: 33.6 (µM), S9 metabolic activation: with S9, exposure time: 3-4 hours	0.3	4.28	61.8
concentration: 33.6 (µM), S9 metabolic activation: without S9, exposure time: 24 hours	0.82	2.08	84.9
concentration: 41.9 (µM), S9 metabolic activation: with S9, exposure time: 3-4 hours	0.32	3.3	58.5
concentration: 41.9 (µM), S9 metabolic activation: without S9, exposure time: 24 hours	0.82	2.56	82.6
concentration: 52.4 (µM), S9 metabolic activation: with S9, exposure time: 3-4 hours	0.3	3.01	57.9
concentration: 52.4 (µM), S9 metabolic activation: without S9, exposure time: 24 hours	0.76	3.22	78.4
concentration: 65.5 (µM), S9 metabolic activation: with S9, exposure time: 3-4 hours	0.29	2.68	58.4
concentration: 65.5 (µM), S9 metabolic activation: without S9, exposure time: 24 hours	1.08	2.5	80.8
concentration: 81.9 (µM), S9 metabolic activation: with S9, exposure time: 3-4 hours	0.59	3.38	50.1
concentration: 81.9 (µM), S9 metabolic activation: without S9, exposure time: 24 hours	1.22	3.46	68.6
concentration: 102 (µM), S9 metabolic activation: with S9, exposure time: 3-4 hours	0.3	2.1	56.5
concentration: 102 (µM), S9 metabolic activation: without S9, exposure time: 24 hours	1.1	3.8	72.5
concentration: 128 (µM), S9 metabolic activation: with S9, exposure time: 3-4 hours	0.25	2.37	46
concentration: 128 (µM), S9 metabolic activation: without S9, exposure time: 24 hours	1.5	3.2	81.1
concentration: 160 (µM), S9 metabolic activation: with S9, exposure time: 3-4 hours	0.62	3.03	58.3
concentration: 160 (µM), S9 metabolic activation: without S9, exposure time: 24 hours	1.38	4.96	79.5
concentration: 200 (µM), S9 metabolic activation: with S9, exposure time: 3-4 hours	0.32	1.69	48.4
concentration: 200 (µM), S9 metabolic activation: without S9, exposure time: 24 hours	1.68	3.78	57.5

Cc1ccc(O)c(C)c1 [2,4-Dimethylphenol]
Conditions	hypodiploid nuclei frequency, CHO-K1 [3] [%]	micronucleus frequency, CHO-K1 [2] [%]	relative survival, CHO-K1 [1]
concentration: 4.46 (µM), S9 metabolic activation: with S9, exposure time: 3-4 hours	0.08	1.22	78.1
concentration: 4.46 (µM), S9 metabolic activation: without S9, exposure time: 24 hours	0.48	1.82	93
concentration: 5.57 (µM), S9 metabolic activation: with S9, exposure time: 3-4 hours	0.22	1.32	76.7
concentration: 5.57 (µM), S9 metabolic activation: without S9, exposure time: 24 hours	0.48	1.54	108
concentration: 6.97 (µM), S9 metabolic activation: with S9, exposure time: 3-4 hours	0.32	2.18	76.4
concentration: 6.97 (µM), S9 metabolic activation: without S9, exposure time: 24 hours	0.42	1.5	95.7
concentration: 8.71 (µM), S9 metabolic activation: with S9, exposure time: 3-4 hours	0.2	1.38	106
concentration: 8.71 (µM), S9 metabolic activation: without S9, exposure time: 24 hours	0.44	1.72	106
concentration: 10.9 (µM), S9 metabolic activation: with S9, exposure time: 3-4 hours	0.32	1.34	81.4
concentration: 10.9 (µM), S9 metabolic activation: without S9, exposure time: 24 hours	0.52	2.2	86.5
concentration: 13.6 (µM), S9 metabolic activation: with S9, exposure time: 3-4 hours	0.26	1.78	96
concentration: 13.6 (µM), S9 metabolic activation: without S9, exposure time: 24 hours	0.52	2.54	91.6
concentration: 17 (µM), S9 metabolic activation: with S9, exposure time: 3-4 hours	0.36	2.72	102
concentration: 17 (µM), S9 metabolic activation: without S9, exposure time: 24 hours	0.6	2.28	78.8
concentration: 21.3 (µM), S9 metabolic activation: with S9, exposure time: 3-4 hours	0.36	1.28	128
concentration: 21.3 (µM), S9 metabolic activation: without S9, exposure time: 24 hours	0.38	1.84	95.7
concentration: 26.6 (µM), S9 metabolic activation: with S9, exposure time: 3-4 hours	0.36	1.7	81.4
concentration: 26.6 (µM), S9 metabolic activation: without S9, exposure time: 24 hours	0.5	1.96	82.6
concentration: 33.2 (µM), S9 metabolic activation: with S9, exposure time: 3-4 hours	0.24	1.88	88.3
concentration: 33.2 (µM), S9 metabolic activation: without S9, exposure time: 24 hours	0.5	1.74	84.1
concentration: 41.5 (µM), S9 metabolic activation: with S9, exposure time: 3-4 hours	0.26	2.18	76.7
concentration: 41.5 (µM), S9 metabolic activation: without S9, exposure time: 24 hours	0.76	1.78	88.2
concentration: 51.9 (µM), S9 metabolic activation: with S9, exposure time: 3-4 hours	0.12	1.18	92.6
concentration: 51.9 (µM), S9 metabolic activation: without S9, exposure time: 24 hours	0.68	1.7	72.7
concentration: 64.9 (µM), S9 metabolic activation: with S9, exposure time: 3-4 hours	0.3	1.7	78.7
concentration: 64.9 (µM), S9 metabolic activation: without S9, exposure time: 24 hours	0.78	2.4	82.6
concentration: 81.1 (µM), S9 metabolic activation: with S9, exposure time: 3-4 hours	0.56	3.18	74
concentration: 81.1 (µM), S9 metabolic activation: without S9, exposure time: 24 hours	0.68	2.8	65.1
concentration: 101 (µM), S9 metabolic activation: with S9, exposure time: 3-4 hours	0.24	2.2	81.8
concentration: 101 (µM), S9 metabolic activation: without S9, exposure time: 24 hours	0.96	2.86	64.2
concentration: 127 (µM), S9 metabolic activation: with S9, exposure time: 3-4 hours	0.22	2.12	83.7
concentration: 127 (µM), S9 metabolic activation: without S9, exposure time: 24 hours	1.3	3.36	56.5
concentration: 158 (µM), S9 metabolic activation: with S9, exposure time: 3-4 hours	0.28	1.9	89.4
concentration: 158 (µM), S9 metabolic activation: without S9, exposure time: 24 hours	1.3	4	58.8
concentration: 198 (µM), S9 metabolic activation: with S9, exposure time: 3-4 hours	0.16	1.54	76.4
concentration: 198 (µM), S9 metabolic activation: without S9, exposure time: 24 hours	1.7	4.14	56.8

CC(C)(C)OOC(C)(C)CCC(C)(C)OOC(C)(C)C [2,5-Dimethyl-2,5-di-(tert-butylperoxy)hexane]
Conditions	hypodiploid nuclei frequency, CHO-K1 [3] [%]	micronucleus frequency, CHO-K1 [2] [%]	relative survival, CHO-K1 [1]
concentration: 4.5 (µM), S9 metabolic activation: without S9, exposure time: 24 hours	0.18	1.6	78.1
concentration: 5.63 (µM), S9 metabolic activation: without S9, exposure time: 24 hours	0.24	0.82	75.5
concentration: 7.04 (µM), S9 metabolic activation: without S9, exposure time: 24 hours	0.38	1.24	108
concentration: 8.8 (µM), S9 metabolic activation: without S9, exposure time: 24 hours	0.38	1.46	75.1
concentration: 11 (µM), S9 metabolic activation: without S9, exposure time: 24 hours	0.38	1.32	85.5
concentration: 13.7 (µM), S9 metabolic activation: without S9, exposure time: 24 hours	0.46	1.16	99.6
concentration: 17.2 (µM), S9 metabolic activation: without S9, exposure time: 24 hours	0.36	1.24	115
concentration: 21.5 (µM), S9 metabolic activation: without S9, exposure time: 24 hours	0.28	0.94	115
concentration: 26.8 (µM), S9 metabolic activation: with S9, exposure time: 3-4 hours	0.1	1.26	143
concentration: 26.8 (µM), S9 metabolic activation: without S9, exposure time: 24 hours	0.4	1.22	87.1
concentration: 33.6 (µM), S9 metabolic activation: with S9, exposure time: 3-4 hours	0.28	1.06	128
concentration: 33.6 (µM), S9 metabolic activation: without S9, exposure time: 24 hours	0.46	1.3	106
concentration: 41.9 (µM), S9 metabolic activation: with S9, exposure time: 3-4 hours	0.16	1.08	118
concentration: 41.9 (µM), S9 metabolic activation: without S9, exposure time: 24 hours	0.42	1.1	100
concentration: 52.4 (µM), S9 metabolic activation: with S9, exposure time: 3-4 hours	0.24	1.34	106
concentration: 52.4 (µM), S9 metabolic activation: without S9, exposure time: 24 hours	0.46	1.26	87.4
concentration: 65.5 (µM), S9 metabolic activation: with S9, exposure time: 3-4 hours	0.22	1.18	116
concentration: 65.5 (µM), S9 metabolic activation: without S9, exposure time: 24 hours	0.42	1.32	98.5
concentration: 81.9 (µM), S9 metabolic activation: with S9, exposure time: 3-4 hours	0.16	1.26	91.5
concentration: 81.9 (µM), S9 metabolic activation: without S9, exposure time: 24 hours	0.68	1.74	108
concentration: 102 (µM), S9 metabolic activation: with S9, exposure time: 3-4 hours	0.28	1.16	113
concentration: 102 (µM), S9 metabolic activation: without S9, exposure time: 24 hours	0.76	1.6	97.5
concentration: 128 (µM), S9 metabolic activation: with S9, exposure time: 3-4 hours	0.18	1.12	112
concentration: 128 (µM), S9 metabolic activation: without S9, exposure time: 24 hours	0.9	1.74	110
concentration: 160 (µM), S9 metabolic activation: with S9, exposure time: 3-4 hours	0.18	1.34	114
concentration: 160 (µM), S9 metabolic activation: without S9, exposure time: 24 hours	0.86	1.62	97.5
concentration: 200 (µM), S9 metabolic activation: with S9, exposure time: 3-4 hours	0.3	1.52	106
concentration: 200 (µM), S9 metabolic activation: without S9, exposure time: 24 hours	0.8	1.6	50.4
